Assay results taken from PubChem BioAssay AID1768 (National Center for Advancing Translational Sciences (NCATS), 2009).
Out of some 270,000 compounds screened, about 620 (0.23%) were called active. The inconclusive results got no clear call from the source; some entries with a clear call stand among them for comparison. Calls come from the whole dose curve; as a rule, active = well fitted inhibition curve with a large enough effect in the polarisation, with a control signal flat (not every such curve was filed as active); inconclusive = small, poorly fitted or top-dose-only effect, or effect the other way, or a change in a side signal; inactive = no such curve, though single readings can be large or run the other way; the % refers to the polarisation. Where the call is inconclusive, the potency comes from a doubtful curve fit. “Side channel” marks fits to a control or component signal instead of the main read-out.

Biological target: Menin (Homo sapiens) (UniProt O00255)
Test: qHTS Assay for Inhibitors Targeting the Menin-MLL Interaction in MLL Related Leukemias: Competition With Texas Red Labeled MLL-derived Mutant Peptide; for FP activity change, negative = inhibition: % of control where 0% means no effect
Conditions: fluorescence polarization; FP activity change, negative = inhibition: at 61.6 µM (top of the series)
Potency is the fitted concentration of half-maximal effect; tags give direction and shape of the fitted curve or compound fluorescence and quenching.

Chain of UniProt O00255 (O00255 whole entry, looked up): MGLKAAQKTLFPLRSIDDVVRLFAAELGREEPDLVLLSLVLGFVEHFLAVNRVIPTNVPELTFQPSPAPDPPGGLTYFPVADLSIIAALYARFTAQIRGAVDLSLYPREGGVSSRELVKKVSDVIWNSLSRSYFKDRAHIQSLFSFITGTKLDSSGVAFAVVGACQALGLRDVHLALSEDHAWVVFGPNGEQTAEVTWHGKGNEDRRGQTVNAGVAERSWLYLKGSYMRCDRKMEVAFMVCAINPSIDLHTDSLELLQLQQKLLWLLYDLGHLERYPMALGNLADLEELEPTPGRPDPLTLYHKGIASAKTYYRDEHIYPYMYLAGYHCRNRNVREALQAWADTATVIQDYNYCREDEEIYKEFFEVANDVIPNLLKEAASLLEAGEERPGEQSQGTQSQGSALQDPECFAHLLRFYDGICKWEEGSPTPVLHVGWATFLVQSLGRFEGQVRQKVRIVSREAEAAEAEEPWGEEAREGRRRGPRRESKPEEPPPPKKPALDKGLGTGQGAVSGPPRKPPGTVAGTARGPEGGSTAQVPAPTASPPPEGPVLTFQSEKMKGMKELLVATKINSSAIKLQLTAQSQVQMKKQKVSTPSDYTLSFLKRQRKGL

| SMILES | FP activity change, negative = inhibition | Potency |
| --- | --- | --- |
| O=[N+]([O-])/C=C\c1ccc(N2CCCC2)c(F)c1 | inactive: 3.33% | – |
| C/C(=N/Nc1ccc([N+](=O)[O-])cc1)c1c[nH]c2ccccc12 | – | inconclusive: 6.31 µM [quencher, side channel, partial curve] |
| CCN(CC)S(=O)(=O)c1ccc(N2CCc3ccccc3C2)nc1 | – | inconclusive: 28.2 µM [inhibitor, partial curve] |
| CCc1cc(C(=O)N2CCN(c3ncc(C(F)(F)F)cc3Cl)CC2)sc1C | – | inconclusive: 6.31 µM [fluorescent, side channel, partial curve] |
| NS(=O)(=O)c1ccc(CNC(=O)Cc2cccs2)cc1 | – | inconclusive: 12.6 µM [quencher, side channel, partial curve] |
| OCC1OC(c2ccccc2)C=CC1Oc1ccc(C2CCCC2)cc1 (centres undefined) | – | inconclusive: 3.55 µM [inhibitor, single point] |
| Cn1nc(-c2ccc(Cl)cc2)nc2c(=O)n(C)c(=O)nc1-2 | – | inconclusive: 12.6 µM [quencher, side channel, partial curve] |
| O=C(N/N=C/c1ccc([N+](=O)[O-])o1)c1ccc(O)cc1 | – | inconclusive: 31.6 µM [quencher, side channel, single point] |
| Nc1ccc(NC(=S)Nc2ccccc2)cc1 | – | inconclusive: 39.8 µM [quencher, side channel, single point] |
| O=C(N/N=C/c1ccc(O)c2ccccc12)c1cccnc1 | – | inconclusive: 10 µM [quencher, side channel, single point] |
| O=C(NC(=S)Nc1cc([N+](=O)[O-])ccc1O)c1ccc2c(c1)OCO2 | – | inconclusive: 14.1 µM [quencher, side channel, partial curve] |
| O=C(O)c1ccccc1Nc1ccc(OC(F)F)cc1 | – | inconclusive: 25.1 µM [quencher, side channel, single point] |
| CCCCCCCCCCOC(=O)Cn1c(COc2ccc(C)cc2)[n+](C)c2ccccc21 | – | inconclusive: 1.41 µM [fluorescent, side channel, full curve, poor fit] |
| Cc1ccc(/C=C/c2ccc3cccc(O)c3n2)s1 | – | inconclusive: 25.1 µM [quencher, side channel, partial curve] |
| CCc1oc2ccccc2c1C(=O)c1cc(I)c(O)c(I)c1 | – | inconclusive: 25.1 µM [quencher, side channel, partial curve] |
| COc1ccc2c(c1)C(=NNc1ccc(C(=O)O)cc1)c1cc(OC)ccc1-2 | – | inconclusive: 7.94 µM [quencher, side channel, full curve] |
| CC(=O)N/C(=N\c1nc(C)cc(C)n1)Nc1ccccc1Cl | – | inconclusive: 35.5 µM [fluorescent, side channel, single point] |
| CCCOc1ccc(C(=O)NNC(=S)NC(=O)c2cccs2)cc1 | – | inconclusive: 15.8 µM [quencher, side channel, single point] |
| Cn1c(-c2c(N)n(C3CCCC3)c3nc4ccccc4nc23)nc2ccccc21 | – | inconclusive: 14.1 µM [quencher, side channel, partial curve] |
| CCN(CCO)c1ncnc2onc(-c3ccc(F)cc3)c12 | – | inconclusive: 14.1 µM [inhibitor, partial curve] |

| SMILES | FP activity change, negative = inhibition | Potency |
| --- | --- | --- |
| COc1ccccc1/C=C(/C(=O)OCC(=O)Nc1cc(C)ccc1C)c1ccccc1 | inactive: 11.2% | – |
| CCOc1ccc(NC(=O)COC(=O)CCCc2c[nH]c3ccccc23)cc1 | – | inconclusive: 3.16 µM [quencher, full curve] |
| C=CCSC1=C(C#N)C(c2ccccc2OCC)C(C#N)C(=O)N1 (centres undefined) | – | inconclusive: 31.6 µM [quencher, side channel, partial curve] |
| Cc1nc(-c2ccccn2)nc(N(C)c2ccccc2)c1Cl | – | inconclusive: 10 µM [fluorescent, side channel, partial curve] |
| COc1ccc(/C=C2\CCc3ccccc3C2=O)cc1OC | – | inconclusive: 22.4 µM [fluorescent, side channel, single point] |
| COc1ccc(NC(=O)Nc2nnc(-c3ccccc3SCc3ccccc3)s2)cc1 | – | inconclusive: 3.55 µM [quencher, side channel, full curve] |
| COc1ccc(C(=O)NC(=S)NNC(=O)c2ccc(NC(C)=O)cc2)cc1Br | – | inconclusive: 20 µM [quencher, side channel, partial curve] |
| COc1cccc(N(CC(=O)Nc2ccc3c(c2)OCO3)S(=O)(=O)c2ccccc2)c1 | – | inconclusive: 15.8 µM [quencher, side channel, partial curve] |
| Cc1cc(CNC(=O)C2CCC(=O)N(Cc3cccc(C(F)(F)F)c3)C2)no1 (centres undefined) | inactive: -5.67% | – |
| Cc1ccc2nc(CCc3ccc(N)cc3)[nH]c2c1 | – | inconclusive: 35.5 µM [inhibitor, partial curve] |
| COc1ccc(NC(=O)c2ccccc2-c2ccc(C(F)(F)F)cc2)cc1S(=O)(=O)N1CCOCC1 | inactive: 2.58% | – |
| Cc1cc(C)nc(SCc2ccc(C(=O)N/N=C/c3cccc(O)c3O)cc2)n1 | – | inconclusive: 14.1 µM [quencher, side channel, partial curve] |
| CC1CCN(c2c(NCc3ccc(C(=O)N4c5ccccc5CC4C)cc3)c(=O)c2=O)CC1 (centres undefined) | – | inconclusive: 28.2 µM [fluorescent, side channel, single point] |
| C=CCN(CC=C)Cc1c(C)[nH]c2ccc(C(=O)OCC)cc2c1=O | – | inconclusive: 39.8 µM [inhibitor, single point] |
| CCOC(=O)C(C)/C(C)=N/NC(=O)c1cc2ccccc2cc1O (centres undefined) | – | inconclusive: 31.6 µM [quencher, side channel, single point] |
| CN1CCN(S(=O)(=O)c2ccc(NC(=O)c3ccc(Br)s3)cc2)CC1 | – | inconclusive: 14.1 µM [quencher, side channel, partial curve] |
| CS(=O)(=O)N(Cc1ccccc1)c1ccc(C(=O)Nc2ccccc2C(=O)O)cc1 | – | inconclusive: 25.1 µM [quencher, side channel, single point] |
| Nc1cc2c(cc1[N+](=O)[O-])OCO2 | – | inconclusive: 31.6 µM [quencher, side channel, single point] |
| CC(=O)NC(Cc1ccc(F)cc1)C(=O)NC1CCN(c2nnnn2-c2ccccc2)CC1 (centres undefined) | – | inconclusive: 39.8 µM [inhibitor, single point] |
| CCCCn1c(-c2csc(CCC)c2)n[nH]c1=S | – | inconclusive: 4.47 µM [fluorescent, side channel, full curve, poor fit] |

| SMILES | FP activity change, negative = inhibition | Potency |
| --- | --- | --- |
| Oc1ccc(N=Cc2sc3ccccc3c2Cl)cc1 | – | inconclusive: 25.1 µM [quencher, side channel, partial curve] |
| Cc1ccc(C)c(N2CCN(C(=O)c3cccn4c(=O)c5sccc5nc34)CC2)c1 | – | inconclusive: 28.2 µM [inhibitor, single point] |
| O=C(COc1ccc([N+](=O)[O-])cc1)Nc1ccc(N2CCCC2)cc1 | – | inconclusive: 28.2 µM [quencher, side channel, partial curve] |
| COc1ccccc1C(=O)NNC(=O)C12CC3CC(CC(C3)C1)C2 | – | inconclusive: 0.631 µM [inhibitor, full curve, poor fit] |
| CCOc1ccc(C)cc1S(=O)(=O)N1CCCCC1 | – | inconclusive: 28.2 µM [inhibitor, single point] |
| COc1ccc(Nc2cc(C)c3ccccc3n2)cc1 | – | inconclusive: 10 µM [quencher, side channel, partial curve] |
| Cc1ccc2nc(CSc3nc(C)ccc3C#N)[nH]c2c1 | – | inconclusive: 28.2 µM [quencher, side channel, single point] |
| O=C(O)CC(CC(=O)N1CCOCC1)c1ccccc1 (centres undefined) | – | inconclusive: 28.2 µM [inhibitor, single point] |
| S=C(NCCc1ccc(Cl)cc1)NCc1ccco1 | – | inconclusive: 31.6 µM [quencher, side channel, single point] |
| COc1ccccc1N1CCN(c2ccc(-c3ccccc3)nn2)CC1 | – | inconclusive: 39.8 µM [inhibitor, single point] |
| Cc1ccc(C)c(OCC(O)CN2CCc3ccccc3C2)c1C (centres undefined) | – | inconclusive: 28.2 µM [fluorescent, side channel, partial curve] |
| C/C(=N\NC(=O)c1cc2ccccc2cc1O)c1ccc2c(c1)OCO2 | – | inconclusive: 22.4 µM [quencher, side channel, partial curve] |
| COc1ccccc1N1CCN(C(=O)/C=C/c2ccc3c(c2)OCO3)CC1 | – | inconclusive: 39.8 µM [inhibitor, single point] |
| CCOC(=O)C1=C(O)/C(=C/c2ccc(OCC(=O)O)c(OCC)c2)SC1=Nc1ccc(OC)cc1 | inactive: 0.394% | – |
| COCCNC(=O)COc1ccc(N(C)S(=O)(=O)c2ccc3ccccc3c2)cc1 | inactive: 0.697% | – |
| Cc1ccc(C(=O)NN2C(=O)/C(=C/c3cn(C)c4ccccc34)SC2=S)cc1 | – | inconclusive: 22.4 µM [fluorescent, side channel, single point] |
| C/C(=C\C(=S)Nc1ccccc1)Nc1ccccc1 | inactive: -4.09% | – |
| COc1cc(/C=C/c2ccc3cccc(O)c3n2)cc(Cl)c1OC | – | inconclusive: 3.98 µM [quencher, side channel, full curve] |
| Cc1ccc(NC(=O)c2cc3ccccc3cc2O)cc1 | – | inconclusive: 7.08 µM [quencher, side channel, partial curve] |
